# Laboratory results taken from PubChem BioAssay (NCATS).
# Inconclusive results, whose numbers are uncertain, are shown with a selection of clear calls. Potencies of inconclusive entries are left out as doubtful fits. The source made the active and inactive calls. The call rests on the fitted dose curve; in most records, active means well fitted cell-killing curve with a large enough effect; inconclusive means small, poorly fitted or top-dose-only effect, or effect the other way; inactive means no such curve, though single readings can be large or run the other way.
# Experiment: Viability qHTS for spleen associated tyrosine kinase inhibitor (SYKi) drug resistant MV4-11 cells (AID 1963824); further: nearly all actives have a fitted effect of over 35% in size
# Details: SYKi-resistant MV4-11 viability, CellTiter-Glo, 72 h; series mostly up to 45 µM; viability, % of control: at the top concentration
# Outline: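 CellTiter-Glo luminescence, read 10 min after reagent addition, reports viability after a 72 hr compound exposure. Cells are an MV4-11 line made resistant to SYK inhibition, seeded at 500 per well onto compound-containing plates.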
# Potency means the concentration at half of the fitted maximal effect; tags describe the fitted curve by direction and shape.
Structure (SMILES),"viability, % of control",Potency
CC(/C=C/C1(O)C2(C)COC1(C)CC(=O)C2)O[C@@H]1O[C@H](CO)[C@@H](O)[C@H](O)[C@H]1O (some centres not stated),inactive: 93.2% [at 17.3 µM],–
O=C(O)c1cn(C2CC2)c2cc(Cl)c(F)cc2c1=O,–,"inconclusive [rising, full curve, poor fit]"
C=C1/C(=C/C=C2\CCC[C@]3(C)[C@@H]([C@H](C)/C=C/[C@@H](C)C(C)C)CC[C@@H]23)C[C@@H](O)C[C@@H]1O,–,"inconclusive [cytotoxic, partial curve]"
C=C1C[C@]23C[C@H]1[C@@H](O)C[C@H]2[C@@]12C=C[C@H](O)[C@@](C)(C(=O)O1)[C@H]2[C@@H]3C(=O)O,–,"inconclusive [cytotoxic, partial curve, poor fit]"
C=CC1(C)CC(O)C(C(=C)C(=O)OC)C(O)C1C(=C)CO (configuration not stated),–,"inconclusive [cytotoxic, partial curve]"
CC(=O)/C=C/C1(O)C(C)=CC(=O)CC1(C)C (configuration not stated),–,"inconclusive [cytotoxic, partial curve, poor fit]"
C/C=C(/C)C(=O)OC1C2OC2C2(CO2)C2C3OC(=O)C(C)C3CCC12C (configuration not stated),–,"inconclusive [cytotoxic, partial curve]"
